# Out of some 130,000 compounds screened, about 1,900 (1.5%) were called active. The inconclusive results got no clear call from the source; some entries with a clear call stand among them for comparison. Calls follow the shape of the dose curve; as a rule, active = well fitted cell-killing curve with a large enough effect; inconclusive = small, poorly fitted or top-dose-only effect; inactive = no such curve, though single readings can be large or run the other way. A potency beside an inconclusive call is a rough fit, not a confirmed value.
# Assay: qHTS Screen for Compounds that Selectively Target Cancer Cells with p53 Mutations: Cytotoxicity of p53ts Cells at the Nonpermissive Temperature; also: nearly all actives have a fitted effect of over 55% in size
# Settings: H1299-p53A138V viability at 39C, ATP luminescence, 24 h; activity change, negative = cell killing: at 46.1 µM (top of the series)
# % is scaled to controls: 0 for no effect and ±100 for the full control effect; potency is read from the fitted curve at half-maximal effect; tags tell the direction and shape of the fitted curve.
SMILES,Potency,"activity change, negative = cell killing"
CCCn1c(N)c(C(=O)CSc2nnc(Cc3ccccc3)o2)c(=O)n(C)c1=O,"inconclusive: 15.8 µM [cytotoxic, single point]",–
Cc1cccc(-c2noc(C3CC(=O)N(c4ccc5c(c4)OCCO5)C3)n2)c1 (centres undefined),"inconclusive: 12.6 µM [cytotoxic, partial curve]",–
CCN(CC)CCCNC(=O)c1oc2c(c1C)-c1nn(Cc3ccc(Cl)cc3)cc1CC2,"inconclusive: 25.1 µM [cytotoxic, single point]",–
COc1ccc(NC(=O)CCc2c(C)nn(-c3ccc(N4CCOCC4)nn3)c2C)cc1Cl,"inconclusive: 10 µM [cytotoxic, partial curve]",–
COCCNC(=O)CCC(=O)NNc1nc2ccccc2c2nc(-c3ccccc3)nn12,"inconclusive: 10 µM [cytotoxic, partial curve]",–
COc1ccc(N2CCN(C(=O)CCS(=O)(=O)c3cc4c(cc3Cl)NC(=O)CO4)CC2)cc1,"inconclusive: 2 µM [cytotoxic, partial curve]",–
CC(=O)c1cc(C(=O)Nc2cccc(C)c2)c2ccccn12,–,inactive: -27.4%
Cc1ccc(N(CC(=O)NCc2ccco2)S(=O)(=O)c2ccccc2)cc1,–,inactive: -0.697%
COc1ccc(Cn2c(C3CC3)nc3ccc(NC(=O)C4CC4)cc3c2=O)cc1,"inconclusive: 15.8 µM [cytotoxic, single point]",–
Cc1ccc(Cl)cc1NC(=O)c1ccc(-c2nc(CSc3ccccc3)c(C)o2)cc1,"inconclusive: 0.794 µM [cytotoxic, full curve, poor fit]",–
Cc1ccc2c(CNCCc3ccc(Cl)cc3)c(C(=O)O)n(Cc3ccc(F)cc3)c2c1,"inconclusive: 25.1 µM [cytotoxic, single point]",–
COc1ccc(-c2csc(NCc3ccco3)n2)cc1C,"inconclusive: 15.8 µM [cytotoxic, single point]",–
COc1ccc(-c2cnc(C)o2)cc1S(=O)(=O)Nc1ccc(C)c(F)c1,"inconclusive: 35.5 µM [cytotoxic, single point]",–
O=C1c2cccnc2C(=O)N1c1cccc(-c2nc3ccccc3o2)c1,"inconclusive: 5.01 µM [cytotoxic, partial curve]",–
Cc1ccc2oc(-c3ccc(NC(=O)CC(C)C)cc3)nc2c1,–,inactive: -26%
CCCN(C(=O)c1cc2c(s1)-c1ccccc1SC2)c1ccccc1F,active: 25.1 µM,–
COc1ccc(CCNC(=O)CCn2c(=O)c3cccn3c3ccc(F)cc32)c(OC)c1OC,–,inactive: 9.78%
CCOc1ccccc1CNC(=O)Nc1cn(CC(C)C)c(=O)c2ccccc12,"inconclusive: 1.26 µM [cytotoxic, single point]",–
CC(C)(C)c1cc(C(C)(C)C)c2oc(=O)c(-c3nc4ccccc4[nH]3)cc2c1,"inconclusive: 31.6 µM [cytotoxic, single point]",–
Cc1ccc(Cn2c(SCC(=O)NCc3ccc(Cl)cc3)nc3ccsc3c2=O)cc1,"inconclusive: 5.01 µM [cytotoxic, partial curve]",–
CCOC(=O)c1c(C)c(-c2ccccc2)n(CC(=O)Nc2cc(OC)cc(OC)c2)c1C,"inconclusive: 5.01 µM [cytotoxic, partial curve]",–
COC(=O)CNC(=O)Nc1cc(C(=O)NCc2ccc(C)cc2)ccc1N1CCCC1,–,inactive: -14.4%
Nc1ccc(N=Nc2ccc(-c3ccc(O)cc3)cc2)c2ccc(S(=O)(=O)O)cc12,–,inactive: 2.74% [at 9.22 µM]

SMILES,Potency,"activity change, negative = cell killing"
O=c1cc(-c2ccccc2)oc2cc(O)cc(O)c12,"inconclusive: 25.1 µM [cytotoxic, partial curve]",–
N#CC1=C(N)Oc2c(ccc3cccnc23)C1c1cccnc1 (centres undefined),"inconclusive: 31.6 µM [cytotoxic, single point]",–
Cc1nn(C(=O)c2cccc([N+](=O)[O-])c2C)c(C)c1S(=O)(=O)N1CCOCC1,"inconclusive: 0.0316 µM [cytotoxic, full curve]",–
O=C(NCc1ccc(F)cc1)c1ccc(CSCc2cccc(Cl)c2)o1,"inconclusive: 0.0631 µM [cytotoxic, full curve]",–
Cc1ccc(NC(=O)CSc2ncc3c(n2)-c2ccccc2N(Cc2cccc(F)c2)S3(=O)=O)cc1F,"inconclusive: 20 µM [cytotoxic, single point]",–
Oc1ccc(COCc2ccccc2)c2cccnc12,"inconclusive: 2.51 µM [cytotoxic, full curve]",–
C/C(=C\C(=O)Nc1nccs1)c1ccccc1,"inconclusive: 15.8 µM [cytotoxic, single point]",–
Oc1ccccc1-c1cc(C(F)(F)C(F)F)nc(-c2ccccc2)n1,–,inactive: 9.84%
Clc1cccc(N2CCN(c3nc4ccccc4n4cnnc34)CC2)c1,"inconclusive: 10 µM [cytotoxic, partial curve, poor fit]",–
C=CCc1ccccc1OCCSc1nc(-c2ccc(C(C)(C)C)cc2)nc2cc(=O)[nH]n12,active: 10 µM,–
O=c1[nH]c(=S)[nH]nc1Cc1ccccc1,–,inactive: 4.38%
COc1cc2ccccc2cc1C(=O)Nc1ccc2oc(-c3ccc(F)cc3)nc2c1,"inconclusive: 12.6 µM [cytotoxic, partial curve]",–
COc1ccccc1CNc1cc(-c2ccccc2C(F)(F)F)ncn1,"inconclusive: 0.398 µM [cytotoxic, full curve, poor fit]",–
COc1ccc(NC(=O)c2oc3ccccc3c2NC(=O)c2cccc(F)c2)c(OC)c1,"inconclusive: 0.005 µM [cytotoxic, full curve, poor fit]",–
CC(C)CCCC(C)C1CCC2C3CC=C4CC(O)CC[C@@]4(C)C3CC[C@@]12C (some centres undefined),–,inactive: 2.07%
c1ccc2nc(-c3nc4ccccc4[nH]3)ccc2c1,active: 2 µM,–
O=C(NC1CCCCC1)c1cc2c(Cl)nc3ccccc3c2s1,–,inactive: 3.97%
Cc1cc(C)c(CSc2nnc(C)n3c2cc2occc23)c(C)c1,active: 20 µM,–
Cc1ccn2c(Nc3ccccc3C)c(-c3ccccn3)nc2c1,"inconclusive: 7.94 µM [cytotoxic, partial curve]",–
Cc1cccc(-n2ncc3c(Nc4ccc(Oc5ccc(Cl)cc5)cc4)ncnc32)c1,–,inactive: 39.7%
CCc1ccc(-n2c(SCc3ccccc3F)nc3[nH]ncc3c2=O)cc1,"inconclusive: 25.1 µM [cytotoxic, single point]",–
Cc1ccc(CNC(=O)CCCCn2c(=O)c3ccccc3n(Cc3c(C)cc(C)cc3C)c2=O)cc1,"inconclusive: 15.8 µM [cytotoxic, single point]",–
CCOC(=O)c1[nH]c2ccc(F)cc2c1NC(=O)CN1CCN(C/C=C/c2ccccc2)CC1,"inconclusive: 12.6 µM [cytotoxic, single point]",–

SMILES,Potency,"activity change, negative = cell killing"
Cc1ccc(NC(=O)c2cccc(N(C)C)c2)cc1NC(=O)c1ccc(O)cc1,active: 7.94 µM,–
O=C(CC1Sc2ccc(C(F)(F)F)cc2NC1=O)Nc1ccc(Cl)c(C(F)(F)F)c1 (centres undefined),"inconclusive: 31.6 µM [cytotoxic, single point]",–
CCOC(=O)C1CCCN(c2ncnc3c2cnn3-c2ccc(Cl)cc2)C1 (centres undefined),"inconclusive: 15.8 µM [cytotoxic, single point]",–
COc1ccc(-c2noc(CCC(=O)NC3CCCCC3)n2)cc1OC,–,inactive: 11.9%
O=C(Nc1ccc(Br)cc1F)c1cc(S(=O)(=O)NCc2ccc(F)cc2)ccc1F,"inconclusive: 31.6 µM [cytotoxic, partial curve, poor fit]",–
c1ccc(-c2ccccn2)nc1,inactive,–
CCC(=O)Nc1ccc2oc(-c3cccc(C)c3)nc2c1,"inconclusive: 5.01 µM [cytotoxic, partial curve]",–
CC1CC(C)CN(S(=O)(=O)c2ccc(C(=O)Nc3nnc(-c4cccs4)o3)cc2)C1 (centres undefined),active: 15.8 µM,–
CCOC(=O)COc1ccc(-c2nnc(-c3ccccc3)o2)cc1,"inconclusive: 12.6 µM [cytotoxic, partial curve]",–
O=C(Nc1ccc2c(c1)OCCO2)c1ccco1,active: 12.6 µM,–
CCCN(C(=O)c1cc2c(s1)-c1ccccc1OC2)c1ccccc1F,–,inactive: -11%
CO[C@@H]1COC(=O)[C@@H](C)NC(=O)C/C=C\[C@@H](C)[C@H](NS(=O)(=O)c2ccc(C)cc2)COC(=O)[C@H](C)NC(=O)C/C=C\[C@H]1C,–,inactive: -4.64% [at 9.22 µM]
CCOc1cccc2cc(-c3nc(-c4ccccc4C)no3)c(=O)oc12,"inconclusive: 10 µM [cytotoxic, partial curve]",–
O=C(Nc1ccc(Cl)cc1)C1CCCN(S(=O)(=O)c2ccc3[nH]c(=O)ccc3c2)C1 (centres undefined),–,inactive: 1.91%
COc1cc(OC)c2c(=O)c(-c3ccccc3)coc2c1,"inconclusive: 10 µM [cytotoxic, partial curve]",–
Cc1cc(NC(=O)c2ccc(Br)o2)cc(-c2nc3ccccc3o2)c1O,"inconclusive: 12.6 µM [cytotoxic, single point]",–
CC(C)CCNC(=O)c1cccc(Nc2nc3ccccc3n3nnnc23)c1,active: 10 µM,–
CC(C)C(NC(=O)C1CCCCC1)C(=O)Nc1ccc2c(c1)OCCO2 (centres undefined),"inconclusive: 10 µM [cytotoxic, partial curve]",–
c1ccc(-n2ncc3c(NC4CCCC4)ncnc32)cc1,active: 10 µM,–
CCc1ccc(C(=O)NCc2cccs2)s1,–,inactive: -13.5%
Cc1ccc(O)c(N=Nc2ccccc2)n1,active: 12.6 µM,–
CCOc1cc(C2c3c(-c4ccc(Br)cc4)n[nH]c3C(=O)N2c2ccc(Cl)cc2)ccc1O (centres undefined),"inconclusive: 12.6 µM [cytotoxic, single point]",–
CCCCC(CC)CNC(=O)c1ccc2c(=O)n(Cc3ccc(OC)cc3)c(=O)[nH]c2c1 (centres undefined),–,inactive: 27.6%

# Reference: PubChem BioAssay AID902 (National Center for Advancing Translational Sciences (NCATS), 2007)
